Among the data in the RNAGym collection of RNA variant scans (doi:10.7554/elife.90254) are self-cleavage values, retold here.

To fix the notation:
B1: OR4K15 (parent)
chain: GUUAACGGUCAUAGGCCAUGGAAACUAGGAGCACCAUUUCGCUGCCAGUGAAGAAAUGAACAAAGAAAAUCUGGGCCAGGCAGGCAUCAAAAGAAAUAGUCUUGCGCUCAACCAGAAAGUCUGUAAUCAUUUUAAGGGUA

Read counts are not given, so values of variants with three or more changes are uncertain.

Variants of B1 are the subject of the series. Briefly: self-cleavage, relative activity (ratio to wild type); higher = more cleavage; in vitro, sequencing; the parent is a self-cleaving ribozyme.
Turning to A114U A125G U133G, the self-cleavage turned out to be 0.

With A116U U127C U139C, the self-cleavage came out at 0.15.

As to U122C U127C U139C, the self-cleavage was determined as 1.13. As to A92G A96G A135U, the self-cleavage came to 1.11. As to A91G A92G A96U U103C U122C, the self-cleavage worked out at 0.2. Then U102C U124A A126G, with 0.79. Turning to U108C A111U A117G U122C, the self-cleavage stood at 0. In the case of A94G A111G A117G U120C it was 0. In the case of U87C A96G G104A it was 0.03; in that of A110G A116G A118G, 0.02; in that of A86G U102C A126G, 1.7. Turning to A96G U120C U139A, the self-cleavage came out at 0.48. Consider C101U U108C U124C U132A, for which the self-cleavage was determined as 0.

For the variant A94G C113U A116G A126G U139C, the self-cleavage was found to be 0.02. Regarding A91G U103C A111G, the self-cleavage was 0.01.

Turning to A86G U103C A111G U130C, the self-cleavage is 0. With A86U A92C A111G, the self-cleavage was 0.01.

Take U100A U120G A126G: the self-cleavage came to 0.66. Turning to A98C U127C A135U U139A, the self-cleavage stood at 0.25. In the case of A114U U122C A129C it was 0.04; in that of A114U A117G U130C, 0.03. As to C112G U120C A135U, the self-cleavage stood at 0.02.

With U102C U122A A129G, the self-cleavage was found to be 1.47. With U87C A96U A129G U131C U139C, the self-cleavage amounted to 1. A86G A95G A117U: the self-cleavage was determined as 1.18. In the case of U100C A117G U127C G136A, the self-cleavage is 1.99. With A94G A111G A114U, the self-cleavage turned out to be 0.02. With A92G U97C A98G A118G A135G, the self-cleavage came to 2.15. For the variant A91G U100C U122C U124C, the self-cleavage was found to be 2.61. With A89U A94G U130A, the self-cleavage worked out at 1.46. As for A86U U124C G138A, the self-cleavage worked out at 0.93. On to A90U U102A U122C A129G, for which the self-cleavage came to 0.55.

Turning to A90U U122C U130C, the self-cleavage stood at 1.35. In the case of A90G A91G U122G it was 1.16.

Regarding U102A U120C U132C, the self-cleavage turned out to be 0.17. Then A110G U120C A125G, with 0.1.

Take C85U A95G U130C: the self-cleavage stood at 1.24. In the case of A91G A116G U127A it was 0.3. On to A111G U122C A134C, for which the self-cleavage came to 0.07. U87A A96G G136U: the self-cleavage was 1.88. Turning to U87C U103C U132C G138A, the self-cleavage was 0.58. Take U108C A111G A135G G137A: the self-cleavage was 0.01. With A91G U100C A114G, the self-cleavage stood at 1.06. In the case of A94U G106A A135G, the self-cleavage is 0. In the case of U87A A91G U120C it was 0.22. A86U A90G U131C: the self-cleavage was 1.02. In the case of A110U A126U U127C it was 0.5.

On to C113A U122C U130C U131C, for which the self-cleavage was 0.01. On to A111U U120C A140G, for which the self-cleavage came to 0.04. Then A91G U122A U139A, with 0.67; and U102C U108A U132C U139A, with 0. On to A117G U120G A129G A140G, for which the self-cleavage was determined as 1.42. Consider A91G A110G U131C U132C, for which the self-cleavage worked out at 0.1. U87C A89U A118U: the self-cleavage came to 0.27.

In the case of A90G A126G U127A, the self-cleavage worked out at 0.28. Then A94U A118G U124A, with 0.96; and A98G U102A U103A, with 0.02. With A86G A96G U103C A114G A118G A126G, the self-cleavage is 0.02. A86G A110G U131C: the self-cleavage came to 0.04. As to A95G U108C A116G U131C, the self-cleavage was 0. In the case of A91G A92G U103C, the self-cleavage amounted to 0.13. In the case of U108C A116G A129G, the self-cleavage came to 0. For the variant A92C A111U A116G, the self-cleavage amounted to 0.04. As to A110G A117C A134G, the self-cleavage was 0.06.

In the case of A86G A95G A96G, the self-cleavage was 1.24. In the case of A114G A117G G137U it was 0.62; in that of A92G A117G A135G, 1.18. Consider A94G G106A U108C, for which the self-cleavage came to 0.01. As to A110G U122C A126C, the self-cleavage amounted to 0.04. For the variant U108C U132C U139C, the self-cleavage came out at 0. With U87C A111G A126G, the self-cleavage is 0.01. Regarding U108A A117G A129G, the self-cleavage was 0.

For the variant A89G A110G G119A U131C, the self-cleavage came to 0.07. Regarding U131C U132C A140G, the self-cleavage was determined as 0.14. On to A98U U102G A111G, for which the self-cleavage was 0.01. U87C A111U U127C: the self-cleavage is 0.01. For G106C U108G A110U, the self-cleavage worked out at 0.01.

On to A96G A114G U122G, for which the self-cleavage turned out to be 0.21. U87C U100C A114U U127C U131C: the self-cleavage amounted to 0.02. Consider A86G A116C U131C, for which the self-cleavage was 0.1. As for A111G A116G U131C, the self-cleavage worked out at 0. With A94G A96G U130A, the self-cleavage is 0.19.

As for A86U A96G U132A, the self-cleavage was determined as 2.54. For the variant U97C A117G U132C, the self-cleavage is 0.79. For A89U U108C A117G, the self-cleavage came to 0.01. Then A94G U97C G137C, with 0.74. A96G U102C A129G: the self-cleavage came out at 1.86.

In the case of U97C A126G U127C, the self-cleavage was determined as 0.18. U87C U102C A114U: the self-cleavage was determined as 0.21. Take A98U U131C A140G: the self-cleavage stood at 2.05. For the variant A94U U102A A126U, the self-cleavage is 0.8. In the case of C85G U87C A110G, the self-cleavage stood at 0.07.

For the variant U87C U124C A126G, the self-cleavage is 0.12.

As to U97C A118U U120C, the self-cleavage turned out to be 0.18.

As to U103A C107U U132C, the self-cleavage came out at 0.01. Then U103C A117C A125G, with 0.12; and A91G U100C C101A U124A, with 0.45; and U120C U127C A134G, with 1.42.

For A116G G123A U130C, the self-cleavage came out at 0.73. For the variant U120G A129G U132C, the self-cleavage stood at 2.53. U103C A111G A117G: the self-cleavage worked out at 0.

For C88A A94G A96G U132C, the self-cleavage worked out at 1.48. As for A86U U87C A91G, the self-cleavage came to 0.83. In the case of U87C A96G U100C, the self-cleavage was found to be 2.83. Turning to U97A U108C A111G, the self-cleavage is 0.01. Turning to U97C U102C U122C, the self-cleavage was determined as 2.11. In the case of U87C A92G G104U G123A it was 0; in that of U124C U132C A140G, 1.13. With A94U C105U U131C, the self-cleavage stood at 0.12. For A94U U100C U108C U127C, the self-cleavage was 0. With U87C A114U A117G, the self-cleavage was 0.12.

Regarding U120A U124C U130A U133C, the self-cleavage is 1.08. For the variant A86U U127C G137A, the self-cleavage came to 1.81. With A91G U131C A140G, the self-cleavage was 1.07. In the case of A94G U108C A118G U132C, the self-cleavage stood at 0. In the case of A89G A92G U108C, the self-cleavage was found to be 0.03.

As to G84A U97G U108A A110U, the self-cleavage was found to be 0.01. In the case of A91G C105U U122C U127A, the self-cleavage was determined as 0.02.

Consider A86U A117G U122C, for which the self-cleavage amounted to 3.

With A96G A98G A118G A140G, the self-cleavage stood at 0.86. For the variant A86G A96G A98G A110G G137A, the self-cleavage was found to be 0.04. With U102C G104U A125G U130G, the self-cleavage worked out at 0.01. Then A116G U120C A140U, with 0.17; and U87A A110G A116U, with 0.06. In the case of A117U A118G U132C it was 1.08; in that of A96U U103C C105A, 0.01. As for A90U A96G U102C, the self-cleavage was 2.75. As for U87A C105U A116G, the self-cleavage was 0.08. Then A86G A90G U122C, with 0.9. Regarding U103C A111G A118G, the self-cleavage was determined as 0.01. For the variant A92G U100C A126G, the self-cleavage turned out to be 1.58. For A89U U108C A114C, the self-cleavage amounted to 0. Then A90U A114U U131C U132C, with 0.03.
